Assay results: the GPR68 mutational scans of Howard et al. (2025)

B1: GPR68, Q15743 (parent)
chain: MGNITADNSSMSCTIDHTIHQTLAPVVYVTVLVVGFPANCLSLYFGYLQIKARNELGVYLCNLTVADLFYICSLPFWLQYVLQHDNWSHGDLSCQVCGILLYENIYISVGFLCCISVDRYLAVAHPFRFHQFRTLKAAVGVSVVIWAKELLTSIYFLMHEEVIEDENQHRVCFEHYPIQAWQRAINYYRFLVGFLFPICLLLASYQGILRAVRRSHGTQKSRKDQIQRLVLSTVVIFLACFLPYHVLLLVRSVWEASCDFAKGVFNAYHFSLLLTSFNCVADPVLYCFVSETTHRDLARLRGACLAFLTCSRTGRAREAYPLGAPEASGKSGAQGEEPELLTKLHPAFQTPNSPGSGGFPTGRLA

What was measured:
[1] = variants of: B1; assay: cAMP reporter score (Enrich2 score, wild type = 0); higher = more signal; HEK293T, FACS bins
[2] = variants of: B1; assay: surface expression score (Enrich2 score, wild type = 0); higher = more signal; HEK293T, FACS bins

| Variant | cAMP reporter score ([1]; pH 5.5) | cAMP reporter score ([1]; pH 6) | cAMP reporter score ([1]; pH 6, modulator: ogerin) | cAMP reporter score ([1]; pH 6.5, modulator: ogerin) | surface expression score [2] |
| --- | --- | --- | --- | --- | --- |
| F270K | -1.89 | -1.14 | -1.69 | -1.11 | -1.3 |
| F270L | -0.108 | -1.15 | -0.804 | -1.66 | 0.119 |
| F270M | -0.29 | -1.58 | -0.294 | -0.622 | -0.359 |
| F270N | -0.412 | -0.06 | -0.65 |  | -0.409 |
| F270P | -2 | -0.54 | -1.72 |  | -1.36 |
| F270Q | -1.24 | -0.968 | -0.868 | -0.698 | -2.32 |
| F270R | -1.29 | -0.692 | -0.979 | -1.59 | -2.64 |
| F270S | -0.537 | -0.83 | -1.05 | -0.696 | 0.148 |
| F270T | 0.519 | -1.08 | 0.304 | -0.653 | -0.328 |
| F270V | 0.416 | -0.568 | 0.375 | -0.01 | 0.797 |
| F270W | -0.779 | -0.954 | -1.53 | -0.581 | -1.1 |
| F270Y | -0.15 | -0.558 | -0.792 | -0.876 | -1.07 |
| F270_S271insG | -1.6 |  |  | -1.01 | -2.94 |
| F270_S271insGS | -1.06 | -0.917 | -1.05 | -0.808 | -2.8 |
| F270del | -1.3 | 0.498 |  | 0.006 | -2.85 |
| S271A | 0.902 |  | 1.39 | 1.19 | 0.918 |
| S271C | 0.276 | -0.947 | 0.854 | 0.029 | 0.072 |

| Variant | cAMP reporter score ([1]; pH 5.5) | cAMP reporter score ([1]; pH 6) | cAMP reporter score ([1]; pH 6, modulator: ogerin) | cAMP reporter score ([1]; pH 6.5, modulator: ogerin) | surface expression score [2] |
| --- | --- | --- | --- | --- | --- |
| S271D | -0.408 |  |  | -0.429 |  |
| S271E | -2.94 |  | -2.42 | -0.401 | -2.23 |
| S271F | -1.24 | -1.25 | -0.901 | -0.978 | -1.36 |
| S271G | 0.338 | -0.366 | -0.318 | 1.41 | -0.79 |
| S271H | -1.52 |  |  | -2.49 |  |
| S271I | -1.23 | -0.577 | -1.93 | -1.37 | -2.7 |
| S271K | -1.75 | -0.291 | -0.98 | -1.58 | -2.16 |
| S271L | -1.56 | -1.69 | -1.68 | -1.19 | -1.68 |
| S271M | -1.93 | -0.838 | -1.31 | -0.573 | -1.99 |
| S271N | -0.85 | -0.385 | -1.38 | -1.14 | -1.69 |
| S271P | -0.771 |  | -1.91 |  | -2.31 |
| S271Q | -1.87 | -0.108 |  | -0.841 | -1.65 |
| S271R | -0.955 | -1.11 | -1.5 | -1.06 | -2.48 |
| S271T | -0.179 | -0.702 | -0.241 | -0.593 | 0.302 |
| S271V | -0.823 |  |  | -1.48 | -0.714 |
| S271_L272insG | -0.285 | -1.06 | -1.3 | -1.11 | -2.26 |

Scores whose standard error is large were omitted. Not listed are two conditions whose scores span a narrow range. In variant names, del marks residues removed and ins residues inserted between the two positions. For part of these data: How much ogerin was present is not stated here.
